# Hit rate of the full screen: of about 310,000 compounds, about 2,200 (0.71%) showed an effect of 50% or more. Effects have a minus sign here. The list shows a part of the results.
# Biological target: human ether-à-go-go-related gene (hERG) potassium channel (human, UniProt Q12809)
# Assay: primary screen, population patch clamp on CHO cells stably expressing hERG
# human ether-à-go-go-related gene (hERG) potassium channel, sequence (Q12809 whole entry, looked up): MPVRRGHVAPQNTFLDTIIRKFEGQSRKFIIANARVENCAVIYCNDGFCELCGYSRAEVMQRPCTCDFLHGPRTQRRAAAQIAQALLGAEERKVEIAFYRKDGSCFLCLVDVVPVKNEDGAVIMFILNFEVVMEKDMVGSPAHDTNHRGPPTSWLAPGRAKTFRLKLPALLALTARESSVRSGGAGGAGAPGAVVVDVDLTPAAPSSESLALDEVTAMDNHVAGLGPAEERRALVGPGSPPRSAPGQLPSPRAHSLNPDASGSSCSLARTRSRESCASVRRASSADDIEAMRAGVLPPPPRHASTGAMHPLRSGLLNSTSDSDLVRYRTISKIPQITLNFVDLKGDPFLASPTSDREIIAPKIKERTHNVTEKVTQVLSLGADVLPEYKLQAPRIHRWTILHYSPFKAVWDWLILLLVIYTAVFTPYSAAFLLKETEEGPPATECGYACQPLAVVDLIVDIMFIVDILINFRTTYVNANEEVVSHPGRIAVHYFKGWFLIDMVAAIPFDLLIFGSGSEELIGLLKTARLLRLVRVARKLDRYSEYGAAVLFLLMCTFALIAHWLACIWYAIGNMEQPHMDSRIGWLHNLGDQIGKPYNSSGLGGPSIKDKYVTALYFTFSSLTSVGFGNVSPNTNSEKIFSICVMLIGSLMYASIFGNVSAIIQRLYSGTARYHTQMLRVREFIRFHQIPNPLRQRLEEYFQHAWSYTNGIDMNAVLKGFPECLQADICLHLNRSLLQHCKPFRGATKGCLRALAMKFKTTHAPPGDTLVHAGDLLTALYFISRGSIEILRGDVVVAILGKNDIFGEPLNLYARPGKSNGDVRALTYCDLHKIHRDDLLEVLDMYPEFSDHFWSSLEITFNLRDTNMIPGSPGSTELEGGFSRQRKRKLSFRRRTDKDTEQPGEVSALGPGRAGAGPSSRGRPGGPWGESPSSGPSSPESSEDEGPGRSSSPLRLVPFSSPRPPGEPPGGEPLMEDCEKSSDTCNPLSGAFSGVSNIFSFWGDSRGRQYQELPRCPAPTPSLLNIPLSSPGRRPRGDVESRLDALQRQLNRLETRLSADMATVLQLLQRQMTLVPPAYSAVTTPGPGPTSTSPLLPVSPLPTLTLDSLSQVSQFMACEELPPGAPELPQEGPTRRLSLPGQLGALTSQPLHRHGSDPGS
row,Compound,"hERG current change (%, negative = inhibition) at 1uM [%]"
1,COC(=O)Nc1ccc(S(=O)(=O)N2CCN(CCN3C(=O)C4C5C=CC(C5)C4C3=O)CC2)cc1 (stereo not shown),0.886
2,CCc1cccc(C)c1NC(=O)C1CC=CCC1C(=O)O (stereo not shown),6.97
3,COc1ccc2nc(SCC(=O)Nc3ccc4[nH]c(=O)[nH]c4c3)[nH]c2c1,8.35
4,Cc1ccc2c(CN(C)Cc3cccc(Cl)c3)cc(=O)oc2c1C,12.2
5,COc1ccccc1Cn1c(=S)[nH]c2cc(C(=O)NCCN3CCOCC3)ccc2c1=O,1.24
6,Cc1cc(NC(=O)COC(=O)CCCOc2ccc(Cl)cc2C)no1,11.7
7,Cn1c(/N=C/c2cc(Cl)ccc2O)nc2ccccc21,-1.55
8,CCN1CCN(c2nc3c(C)cccn3c(=O)c2/C=C(\C#N)C(=O)NCCCOC)CC1,8.74
9,C=C(C)[C@H]1CN[C@H](C(=O)O)[C@H]1CC(=O)O,10
10,CC(C)(C)OC(=O)N1CCC[C@H]1c1nnc(SC/C=C/c2ccccc2)o1,-0.126
11,CCCCN(CC)C(=S)Nc1ccc2nc3n(c(=O)c2c1)CCCCC3,-12.2
12,O=C(NCCC(NS(=O)(=O)OCC(Cl)(Cl)Cl)c1ccccc1)C(F)(F)F (stereo not shown),1.59
13,O=C(O)C(=O)O.O=C1CN(C(=O)CNCc2ccccc2Cl)c2ccccc2N1,7.81
14,Cc1cc(/C([O-])=C(/C(=S)Nc2ccc(F)cc2)[n+]2ccccc2)c(C)n1Cc1ccccc1Cl,16
15,COc1ccccc1C(=O)NCC(=O)N/N=C/c1ccc2c(c1)OCO2,13.7
16,CN1C(=O)N(C)C(=O)C(CCc2ccccn2)(CCc2ccccn2)C1=O,3.49
17,O=C(Nc1ccc(S(=O)(=O)N2CCOCC2)cc1)c1ccc(Cl)cc1Cl,3.4
18,Cc1cc(=O)c(C(=O)O)nn1-c1ccccc1,8.46
19,COc1ccc(C(=O)N2CCCC(Nc3ccc(F)cc3)C2)cc1F (stereo not shown),10.4
20,CC1CN(Cc2ccccc2)c2ccccc2NC1=S (stereo not shown),8.37
21,N#C/C(=C/c1cccc([N+](=O)[O-])c1)c1nnc2n1CCCCC2,-3.83
22,O=C(CCCC(=O)N(CC(=O)NC1CCCC1)Cc1ccc2c(c1)OCO2)Nc1ccccn1,2.01

row,Compound,"hERG current change (%, negative = inhibition) at 1uM [%]"
1,COc1ccc(N=Cc2c(O)n(Cc3ccccc3)c(=S)[nH]c2=O)c(OC)c1,2.11
2,S=C(NCc1cccnc1)Nc1ccc(Cl)cc1Cl,1.81
3,Cc1ccc(C(=O)COC(=O)c2ccc(Br)o2)cc1C,7.52
4,CCOC(=O)C1=C(C)NC(C)=C(C(=O)OCC)C1C(=O)OCC(=O)NCCc1ccc(S(N)(=O)=O)cc1,19.1
5,Cc1cc(C)nc(NS(=O)(=O)c2ccc(NC(=O)c3snnc3C)cc2)n1,9.16
6,NS(=O)(=O)c1ccc(NCC2COc3ccccc3O2)c([N+](=O)[O-])c1 (stereo not shown),17
7,CC(C)OC(=O)c1cccc(NC(=O)c2ccccc2)c1,2.94
8,COc1ccccc1-c1nc(COc2ccc(Cl)cc2Cl)no1,17.5
9,COc1cccc(-n2c(=O)c3sccc3n(CC(=O)NC3CCCCC3)c2=O)c1,15.2
10,Cc1ccc2nc(-c3ccccc3)c(CN3CCSCC3)n2c1,9.56
11,COc1cccc(CNS(=O)(=O)c2ccc3c(c2)N(C)CCO3)c1,5.96
12,CC(C)(O)c1cn(-c2nonc2N)nn1,10.5
13,Brc1ccc(CNc2cc3c(cc2Br)OCCO3)cc1,17.4
14,O=C(N/N=C/c1ccc(OC2CSC2)cc1)c1ccccc1,-0.636
15,CCOc1ccc(N2CC(O)Cn3c2nc2c3c(=O)n(CCCc3ccccc3)c(=O)n2C)cc1 (stereo not shown),11.7
16,CN(C)S(=O)(=O)N(CC(=O)NCc1ccccc1)c1ccccc1,7.88
17,O=C(C/C=N/OCc1c(Cl)cccc1Cl)c1ccccc1,-6.6
18,CC(C)C[C@H](NC(=O)OC(C)(C)C)C(=O)N[C@@H](CO)[C@H](O)[C@@H]1C[C@@H]1C(=O)NC1CC1,4.75
19,Cn1c(=O)[nH]c(=O)c2c1nc(Sc1ncccn1)n2CCCc1ccccc1,-6.2
20,O=C1C(=O)N(Cc2cccnc2)C(c2ccc(Br)cc2)/C1=C(\O)c1ccc2c(c1)OCCO2 (stereo not shown),5.38
21,Cc1ccc(S(=O)(=O)Nc2cc(C)cn(Cc3ccccc3)c2=O)cc1,14.7
22,CCOc1cc(NC(=O)c2ccco2)c(OCC)cc1NC(=O)Cc1cccc(OC)c1,5.79

row,Compound,"hERG current change (%, negative = inhibition) at 1uM [%]"
1,CC(=O)Nc1ccc(NC(=O)C(C)OC(=O)c2cccc(S(=O)(=O)N3CCCCC3)c2)cc1 (stereo not shown),13.3
2,CCOC(=O)CNC(=S)N(Cc1cccs1)C1CCCCC1,10.8
3,N#CCCn1cc(C(=O)Nc2ccc(C(=O)O)cc2)c(-c2cc3ccccc3o2)n1,15.4
4,CSc1ccc(C(=S)N2CCN(C(c3ccccc3)c3ccccc3)CC2)cc1,7.8
5,Cc1cc(C(=O)NNC(=O)CCC2CCCCC2)c(C)o1,12.5
6,Cc1ccc(Oc2nc(C(F)(F)F)nc3ccccc23)cc1,6.66
7,COc1cccc(NC(=O)CN(C)C(=O)c2ccccc2CCc2ccccc2)c1,13.3
8,O=C(O)Cc1sc(Nc2cccc3ccccc23)nc1-c1ccc(F)cc1,14.5
9,OCC1(CO)COC(c2cccnc2)N1 (stereo not shown),4.05
10,CC(=O)Nc1ccccc1NC(=O)CC(C)(C)C,-8.06
11,CCCn1nnnc1NCc1ccc(C(C)C)cc1,7.76
12,CC1(C)C2CC=C(/C=N/NC(=O)C(N)=O)C1C2 (stereo not shown),10.3
13,CCOC(=O)C1CCCN(c2c(Nc3cccc(C)c3)c(=O)c2=O)C1 (stereo not shown),3.17
14,O=[N+]([O-])c1ccc2c(c1)oc1ccccc12,19.5
15,COc1ccc(N(CC(=O)Nc2ccc3c(c2)OCCO3)S(=O)(=O)c2cccnc2)cc1,2.97
16,CC(C)CC(=O)NC(=S)NCc1ccccc1,7.19
17,CSc1ncc(Cl)c(C(=O)Nc2ccc(S(=O)(=O)Nc3nccc(C)n3)cc2)n1,-8.05
18,O=C(CCCCn1c(=O)[nH]c2ccccc2c1=O)NCc1ccc2c(c1)OCO2,10.7
19,CC(=O)NC(Cc1c[nH]c2ccccc12)C(=O)NCc1ccco1 (stereo not shown),15.4
20,Cc1ccc(Sc2ccc(CN3CCCCC3)cc2[N+](=O)[O-])cc1,29.3
21,O=C(c1cc(F)ccc1F)C1CCCN(C(=O)CSc2ccccn2)C1 (stereo not shown),-3.1
22,CCOC(=O)C(=O)Nc1ccccc1C(=O)NC(C)C,5.82

row,Compound,"hERG current change (%, negative = inhibition) at 1uM [%]"
1,CCCNC(=O)CNC(=S)N(Cc1ccccc1F)C1CCCCC1,2.76
2,NC(=O)Nc1ccc(C(=O)OCC(=O)NCc2ccc3c(c2)OCO3)cc1,10.4
3,CC(=O)c1cccc(NC(=O)COC(=O)c2ccc(S(C)(=O)=O)c([N+](=O)[O-])c2)c1,14.7
4,CC(=O)C1C(=O)CC(c2ccc(Cl)cc2)CC1=O (stereo not shown),13.2
5,Cc1nc(Nc2nc3ccccc3o2)nc2c1CCC2,19
6,O=C(O)c1ccc(N2C(=O)c3cccc(Oc4ccc(Cl)cc4)c3C2=O)cc1,-14.2
7,COc1ccccc1C(=O)NC(=O)COC(=O)C1CCC1,3.17
8,CCOC(=O)c1c(NC(=O)c2noc(C)c2[N+](=O)[O-])sc(C(C)=O)c1C,10.3
9,CCOc1ccc(NC(=O)CSc2nnc(CNC(=O)c3ccco3)o2)cc1,-0.25
10,COc1ccccc1CNc1nc2nc(C)c(C)c(=O)n2[nH]1,8.46
11,CC(=O)NC1C(OCc2ccccc2)OC2COC(c3ccccc3)OC2C1OCC(=O)O (stereo not shown),19
12,COc1cc2c3c(c1OC)-c1cc(O)ccc1CC3NCC2.Cl (stereo not shown),-13.7
13,N#CCCn1c(C(C#N)(CCC#N)CCC#N)nc2ccccc21,15.9
14,COCCCNC(=O)C1CCCCN1S(=O)(=O)c1ccc(F)cc1 (stereo not shown),11
15,Cc1cc(=O)n2nc(N3CCC(C(=O)NCCc4ccc(Cl)cc4)CC3)sc2n1,0.822
16,Cc1ccc(C(=O)c2nc(C(=O)NCCO)nc3ccccc23)cc1,16.5
17,CC1Cc2ccccc2N1S(=O)(=O)c1cccc2nsnc12 (stereo not shown),6.02
18,COCCn1cnc2c1c(=O)n(CC(=O)NCC(F)(F)F)c(=O)n2Cc1ccccc1,14.4
19,Cc1nc(SCC(=O)Nc2cc(C)on2)c2c(=O)n(C)c(=O)n(C)c2n1,13.2
20,CN1CCN(c2ccccc2NC(=O)c2c(F)cccc2F)CC1,2.83
21,COc1ccc(/C=C/C(=O)Nc2sc3c(c2C(=O)NCc2cccnc2)CCCC3)cc1,7.55
22,Cn1c(CC(=O)Nc2ccc(F)cc2)c(Sc2ccccc2)c2ccccc21,8.32
